{"source": "PubChem BioAssay AID686978", "about": "(National Center for Advancing Translational Sciences (NCATS), 2013)", "note": "Out of some 420,000 compounds screened, about 64,000 (15%) were called active. This list was built around the results that the source calls inconclusive (neither active nor inactive); the mix of calls is not that of the screen. Calls come from the whole dose curve; as a rule, active = well fitted inhibition curve with a large enough effect; inconclusive = small, poorly fitted or top-dose-only effect; inactive = flat fitted curve, though single readings scatter. Potencies of inconclusive entries are left out as doubtful fits. % is set by controls: 0 for no effect and ±100 for the full control effect; potency is the fitted concentration of half-maximal effect; tags give direction and shape of the fitted curve."}
{"assay": "qHTS for Inhibitors of human tyrosyl-DNA phosphodiesterase 1 (TDP1): qHTS in cells in absence of CPT; note: nearly all actives have a fitted effect of over 55% in size", "conditions": "DT40 Tdp1-/- hTDP1 cells, no CPT, ATP luminescence, 48 h; activity change, negative = growth inhibition: at 46.2 µM (top of the series) unless noted", "outline": "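DT40 Tdp1-/-;hTDP1 cells, no CPT (DMSO vehicle only), 400 cells/well; compounds pin-transferred; ≥48 hr, 37 °C; CellTiter-Glo 30 min RT dark, luminescence read.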"}
{"smiles": "O=C(NNc1ccccc1[N+](=O)[O-])Nc1ccccc1", "Potency": "inconclusive [inhibitor, single point]"}
{"smiles": "COc1ccc(C(=O)C(=O)N2CCN(c3ccc(C)cc3)CC2)cc1OC", "Potency": "inconclusive [inhibitor, single point]"}
{"smiles": "Cc1ccc(-n2nnc3c(=O)n(CC(=O)NCc4ccco4)cnc32)cc1", "Potency": "inconclusive [inhibitor, single point]"}
{"smiles": "Cc1ccc(-n2c(C)nc3c(cnn3-c3ccc(F)cc3)c2=O)cc1", "Potency": "active: 14.6 µM"}
{"smiles": "Cn1cc(Cl)c(C(=O)NC(=S)Nc2sc3c(c2C#N)CCCCC3)n1", "Potency": "inconclusive [inhibitor, single point]"}
{"smiles": "CN(C)c1ccc(CNC(=O)C2CCN(c3nnc(-n4cccc4)s3)CC2)cc1", "Potency": "inconclusive [inhibitor, partial curve]"}
{"smiles": "COc1cc([N+](=O)[O-])ccc1NC(=O)Oc1ccc(NC(C)=O)cc1", "Potency": "inactive"}
{"smiles": "Cc1ccc2c(CC(=O)Nc3nc(C)cs3)coc2c1", "Potency": "inconclusive [inhibitor, single point]"}
{"smiles": "Cc1noc(C)c1C(=O)OC(C)C(=O)N(C)c1ccccc1", "note": "(stereo not given)", "Potency": "inactive"}
{"smiles": "CCOc1ccc(C(=O)Nc2ccc(-c3cc4ccccc4oc3=O)cc2)cc1Br", "Potency": "inconclusive [inhibitor, full curve]"}
{"smiles": "CCn1c(O)c(N=NC(=O)Cn2ccc(C(F)(F)F)n2)c2ccccc21", "Potency": "inconclusive [inhibitor, single point]"}
{"smiles": "COc1cccc(CNC(=O)c2ccc(NC(=O)C3=CSCCO3)cc2)c1", "Potency": "inactive"}
{"smiles": "Cc1cnc(NC(=O)Nc2ccc(Cl)cc2)s1", "Potency": "inconclusive [inhibitor, single point]"}
{"smiles": "CCc1ccc(NC(=S)NC2CCN(Cc3ccccc3)CC2)cc1", "Potency": "active: 11.6 µM"}
{"smiles": "COc1ccc(/C=C2/SC(=O)N(CCC(=O)Nc3ccc(S(=O)(=O)Nc4nccs4)cc3)C2=O)cc1", "Potency": "inconclusive [inhibitor, single point]"}
{"smiles": "CCCCN1C(=O)C(CC(=O)NCC2CCCCC2)CC(C(=O)N(C)C)=C1C", "note": "(stereo not given)", "Potency": "inactive"}
{"smiles": "COc1ccc(N2CCN(c3ccc(C(=O)O)cc3[N+](=O)[O-])CC2)cc1", "Potency": "inactive"}
{"smiles": "O=C(NCc1ccccc1)c1cccn1-c1nnc(N2CCCCC2)s1", "Potency": "inconclusive [inhibitor, single point]"}
{"smiles": "Cc1cc(OCCCC(=O)NCCc2ccccn2)ccc1Cl", "Potency": "inconclusive [inhibitor, single point]"}
{"smiles": "Cc1ccnc(N2C(=O)c3ccccc3C2Nc2ccccc2Cl)c1", "note": "(stereo not given)", "activity change, negative = growth inhibition": "inconclusive: -35% [inhibitor]"}
